Experimental data: PubChem BioAssay AID504832 (National Center for Advancing Translational Sciences (NCATS), 2011)
Among all 310,000 compounds or so, about 18,000 (5.8%) were called active. Inconclusive means that the source gave no clear call. Such entries were picked first, then a sample of the others. Calls follow the shape of the dose curve; as a rule, active = well fitted inhibition curve with a large enough effect; inconclusive = small, poorly fitted or top-dose-only effect, or another doubt; inactive = no such curve, though single readings can be large or run the other way. Potencies of inconclusive entries are left out as doubtful fits.

Assay: Primary qHTS for delayed death inhibitors of the malarial parasite plastid, 48 hour incubation
Details: P. falciparum luciferase growth in erythrocytes; series mostly up to 28.7 µM
Summary of the method: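 Parasite viability was followed by luminescence of a genomically integrated firefly luciferase. Cultures held 0.1% parasitemia at 2% hematocrit (final), incubated under 5% CO2 at 37 C.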
Potency is read from the fitted curve at half-maximal effect; tags tell the direction and shape of the fitted curve.

Structure (SMILES) | Potency
Cc1ccc(-c2c(C(=O)N/N=C/c3sccc3C)nnn2-c2nonc2N)cc1 | inconclusive [inhibitor, full curve]
CCOc1cc(C)c(S(=O)(=O)NCCCn2ccnc2)cc1C | inactive
CCOC(=O)c1[nH]c2ccc(OCC)cc2c1NC(=O)CN1CCCC(C)C1 (stereo unspecified) | inconclusive [inhibitor, partial curve, poor fit]
Cc1ncc([N+](=O)[O-])n1S(=O)(=O)c1cc(Cl)ccc1Cl | inactive
Cc1cc(C)c(S(=O)(=O)Nc2ccc(Cl)cn2)c(C)c1 | active: 10.4 µM
Cc1ccc(C)n1C(CC(=O)O)c1ccc(C#N)cc1 (stereo unspecified) | inactive
Cc1oc2c(c1C(=O)c1ccc(Cl)cc1)C(=O)C(=O)c1ccccc1-2 | inconclusive [inhibitor, partial curve, poor fit]
COc1cc(OC)c(OC)cc1CN1CCN(Cc2ccc(SC)cc2)CC1 | inactive
CC1CC(OP(O)(=S)c2ccc(N(C)C)cc2NC(=O)c2cccs2)CC(C)(C)C1 (stereo unspecified) | inactive
COc1ccc(NC(=O)c2cc(-c3ccccc3)nc3c2c(C)nn3-c2ccccc2)c(OC)c1 | inconclusive [inhibitor, single point]
O=C(Nc1ccc2ccccc2c1)N1CCN(c2ncccc2C(F)(F)F)CC1 | inconclusive [inhibitor, single point]
COc1ccc(C[C@@H]2CN3C(=NC[C@@H]3C)N2CCNC(=O)c2ccc(C)c(Br)c2)cc1 | inconclusive [inhibitor, partial curve, poor fit]
COc1cccc(/C=C2/SC(=S)N(CCCC(=O)Nc3ccc(O)cc3)C2=O)c1 | inconclusive [inhibitor, partial curve]
CCc1cc(C(=O)N2CCCC(N3CCN(c4cccc(C(F)(F)F)c4)CC3)C2)n(C)n1 (stereo unspecified) | inconclusive [inhibitor, partial curve]
O=C(CNS(=O)(=O)c1ccccc1)NCc1ccco1 | inactive
CCCCn1c(N)c(N(CC(C)C)C(=O)C2CCC2)c(=O)[nH]c1=O | inconclusive [inhibitor, single point]
COc1ccc(C(=O)OCC(=O)Nc2ccc3c(c2)OCO3)cc1S(=O)(=O)N1CCOCC1 | inconclusive [inhibitor, single point]
O=C(c1ccco1)N1CCN(c2cc(C(F)(F)F)nc3ncnn23)CC1 | inactive
CCc1ccc(C(C)NC(=S)NC2CCCCC2)cc1 (stereo unspecified) | inconclusive [inhibitor, single point]
CCCCn1c(N)c(N(CCOC)C(=O)c2cc(S(=O)(=O)N3CCCCC3)ccc2Cl)c(=O)[nH]c1=O | inconclusive [inhibitor, full curve, poor fit]
N#Cc1ccccc1S(=O)(=O)N1CCN(C(=O)c2cc3c(s2)CCC3)CC1 | inactive
COc1cccc(C(=O)NCc2ccc3c(c2)cc(C)n3C)c1 | inconclusive [inhibitor]
COc1ccc(NC2CCCN(C(=O)c3ccc(C(C)=O)cc3)C2)cc1 (stereo unspecified) | inactive
CCCc1nc2c(sc3nc4c(cc32)COC(C)(C)C4)c(=O)n1Cc1ccco1 | inactive

Structure (SMILES) | Potency
CSc1cccc(CNC(=O)C2CCC(=O)N(CCCN3CCCC3=O)C2)c1 (stereo unspecified) | inactive
CC1CN(c2oc(COc3ccc(Cl)cc3Cl)nc2C#N)CC(C)O1 (stereo unspecified) | inconclusive [inhibitor, single point]
COc1ccccc1C(=O)NCCC(=O)NCc1ccccn1 | inactive
COc1ccc(CCNC(=O)c2cc(C3CC3)on2)cc1OC | inactive
CCOC(=O)N1CCN(S(=O)(=O)c2cccc3nsnc23)CC1 | inactive
CC1=NN(c2ccc([N+](=O)[O-])cc2)C(c2ccccc2)C1 (stereo unspecified) | inconclusive [inhibitor, full curve]
CCOc1cc(-c2nc(-c3ccccc3)c(-c3cc([N+](=O)[O-])ccc3C)[nH]2)ccc1O | inconclusive [inhibitor, single point]
COc1ccccc1C(=O)NCCn1cc(SCC(=O)NCc2ccco2)c2ccccc21 | inconclusive [inhibitor, single point]
CN1CCc2c(sc(/N=C/c3c[nH]c4ccccc34)c2C#N)C1 | inconclusive [inhibitor, single point]
Cc1cccc(OCCOC(=O)c2ccc(F)c(S(=O)(=O)N3CCOCC3)c2)c1 | inconclusive [inhibitor, single point]
O=S(=O)(c1cccc(C(F)(F)F)c1)N1CCC(c2nc3ccccc3[nH]2)CC1 | inconclusive [inhibitor, partial curve, poor fit]
COc1ccc(CN=Nc2cc(C)nc(NS(=O)(=O)c3ccccc3Cl)n2)cc1 | inconclusive [inhibitor, full curve, poor fit]
CCNC(=S)N/N=C/c1cn(Cc2ccc(F)cc2)c2ccccc12 | inconclusive [inhibitor, single point]
CC(C)c1onc(C(=O)N2CCN(c3ccc(F)cc3)CC2)c1[N+](=O)[O-] | inconclusive [inhibitor, single point]
CCOC(=O)c1c(NC(=O)C(C)S(=O)(=O)c2cn(CC)c3ccccc23)sc2c1CCCC2 (stereo unspecified) | inconclusive [inhibitor, single point]
Cc1oc(C)c2c(=O)ccc3c(c12)OC(N)=C(C#N)C3c1ccccc1 (stereo unspecified) | inconclusive [inhibitor, single point]
N#CCCn1nc(-c2ccc(Cl)cc2)cc1Nc1ccccc1NC(=O)C(F)(F)F | inactive
O=C(/C=C/c1ccc([N+](=O)[O-])cc1)NNC(=O)C1CC1 | inactive
COc1cccc2sc(N3CCN(C(=O)c4ccc([N+](=O)[O-])o4)CC3)nc12 | active: 0.828 µM
COc1ccc(C(=O)C2CCCN(C(=O)c3ccnn3C)C2)cc1OC (stereo unspecified) | inactive
COc1cc(OC)c(NC2=CC(=O)C(=O)c3ccccc32)cc1Cl | active: 0.329 µM
CCN(CC)c1ccc(/C=C/[N+](=O)[O-])cc1 | inactive
Cc1cccc(C)c1NC(=O)C1(NC(=O)C2CCC(=O)N2)CCCCC1 (stereo unspecified) | inconclusive [inhibitor, single point]
Cc1ccc(S(=O)(=O)Nc2ccc(OCC(=O)N3CCOCC3)cc2)c(C)c1NS(C)(=O)=O | inactive

Structure (SMILES) | Potency
CCCN=C1NC(=O)C(CC(=O)NCCc2ccc(OC)c(OC)c2)S1 (stereo unspecified) | inconclusive [inhibitor, single point]
COc1ccc(NC(=O)CCCn2cc([N+](=O)[O-])cn2)cc1 | inactive
Cc1ccc2nc(Cl)c(CNCc3ccccc3)cc2c1 | inconclusive [inhibitor, partial curve]
Cc1ccc(N/C(N)=N/c2nc(C)cc(C)n2)cc1 | inconclusive [inhibitor, partial curve, poor fit]
O=C(Nc1nc(-c2cccc([N+](=O)[O-])c2)cs1)C(c1ccccc1)c1ccccc1 | inconclusive [inhibitor, single point]
O=C(NCC(c1ccco1)N1CCOCC1)c1ccc([N+](=O)[O-])cc1 (stereo unspecified) | inactive
CC(CC12CC3CC(CC(C3)C1)C2)NCc1ccccc1O (stereo unspecified) | inconclusive [inhibitor, full curve, poor fit]
O=C(CSc1ncn(-c2ccccc2)n1)Nc1nncs1 | inactive
CCOc1cc(/C=C/c2cccc[n+]2C)ccc1O | active: 9.28 µM
O=C(O)c1ccc(-n2cccc2/C=N\NC(=O)c2cc3cc(Br)ccc3o2)cc1 | inconclusive [inhibitor, partial curve, poor fit]
CC[C@H]1CN2CCC1C[C@H]2[C@H](O)c1ccnc2ccc(OC)cc12 (stereo partly specified) | active: 0.0928 µM
Cc1ccc(OC(C)C(=O)N(Cc2cccs2)C2CCS(=O)(=O)C2)cc1C (stereo unspecified) | inconclusive [inhibitor, partial curve, poor fit]
COc1ccc(CCNC(=O)C2CC(=O)N(c3ccc(C)cc3)C2)cc1OC (stereo unspecified) | inactive
C/C(=N\Nc1nncc2ccccc12)c1cccc(OC(F)F)c1 | inactive
COc1cc(OC)c(C2SCCN2S(=O)(=O)c2ccc(F)cc2)cc1OC (stereo unspecified) | inconclusive [inhibitor, partial curve, poor fit]
Cc1cc(=O)nc2c3ccccc3n(CC(=O)Nc3ccccc3Br)n12 | inconclusive [inhibitor, single point]
Cc1ccc(CNC(=O)c2ccc(C)c(S(=O)(=O)N3CCCCC3)c2)cc1 | inconclusive [inhibitor, single point]
CC(=O)Oc1cccc(C(=O)Nc2ccc3c(c2)C(=O)N(CC2CCCO2)C3=O)c1 (stereo unspecified) | inconclusive [inhibitor, partial curve, poor fit]
O=C(O)c1cccnc1SC1CC(=O)N(c2ccccc2)C1=O (stereo unspecified) | inconclusive [inhibitor, full curve]
Cc1cccn2c(CN3CCNC(=O)CC3)c(C(=O)N(C)CCc3ccccc3)nc12 | inactive
CC1CCCCC1NC(=O)CSc1nnnn1-c1ccccc1 (stereo unspecified) | inactive
COC(=O)C1CCN(Cc2cn(-c3ccccc3)nc2-c2ccc3c(c2)OCO3)CC1 | inconclusive [inhibitor, partial curve, poor fit]
O=C(Nc1nc(-c2cc3ccccc3oc2=O)cs1)c1ccc(Br)o1 | inactive
